# Assay results reported in the BET-seq Pho4 binding data (Le et al. 2018).
# The list shows a part of the results. These are noisy estimates, calculated here from bound and input reads.
# Target: T1, Pho4 (S. cerevisiae) (UniProt P07270)
# T1 sequence: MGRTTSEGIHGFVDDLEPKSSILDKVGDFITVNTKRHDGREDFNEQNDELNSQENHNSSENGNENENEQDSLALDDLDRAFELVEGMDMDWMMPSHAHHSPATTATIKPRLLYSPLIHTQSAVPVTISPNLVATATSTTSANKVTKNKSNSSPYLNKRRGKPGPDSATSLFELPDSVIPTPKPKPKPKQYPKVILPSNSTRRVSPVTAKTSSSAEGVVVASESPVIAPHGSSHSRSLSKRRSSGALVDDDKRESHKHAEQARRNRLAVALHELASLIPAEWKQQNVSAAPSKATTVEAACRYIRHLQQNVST
# Test: relative binding free energy (BET-seq); higher = weaker binding
# Details: reference: library average
row,Sequence,relative binding free energy [kcal/mol]
1,GAGGGCACGTGGACGT,-0.16
2,TTGAACACGTGATGTT,0.19
3,ATGGGCACGTGTGCTA,-0.08
4,TGGCTCACGTGTCATT,0.2
5,TTAATCACGTGGAGCA,0.23
6,CGCAGCACGTGAGGGG,0.04
7,GATTACACGTGGTTGT,0.06
8,GTGGCCACGTGGGCGG,-0.26
9,TGAGGCACGTGGAGGT,-0.05
10,TAATGCACGTGGTTAA,0.01
11,GTGGTCACGTGGCCAG,-0.03
12,GAAGGCACGTGAGATT,0.39
13,TTTTACACGTGTAATC,0.26
14,TTAGGCACGTGGGGCG,-0.27
15,GAGGGCACGTGTAGGC,0
16,GGGGACACGTGTGGAA,0.09
17,GATTACACGTGGTTTT,0.25
18,TTACTCACGTGCGGTG,0.11
19,GAGACCACGTGTGTGT,0.03
20,AAATTCACGTGATTGT,0.25
21,TTGATCACGTGATAGG,0.15
22,AGTGACACGTGATAGT,0.17
23,ATTTGCACGTGCGGAA,-0.02
24,AGTTACACGTGAGCGT,0.16
25,GTGGGCACGTGGGAAA,-0.12

row,Sequence,relative binding free energy [kcal/mol]
1,TGCATCACGTGTGGAT,0.17
2,CGGGACACGTGAGTGA,0.22
3,CGGTACACGTGTTAGG,0.1
4,TGGAGCACGTGGCGTA,-0.04
5,TTGGACACGTGGAGTC,0.25
6,TTTTACACGTGGAGGC,0.19
7,TTTCGCACGTGGGGGC,-0.18
8,GCGGGCACGTGGATTG,0.07
9,TTTTACACGTGTTATG,0.13
10,AAGGACACGTGGAAGG,-0.03
11,TTTTACACGTGACGGT,0.24
12,CTGTTCACGTGTTGCG,0.18
13,TAAGTCACGTGTGACG,0.11
14,TTGTCCACGTGTTATT,0.06
15,GTGGTCACGTGGTAAG,0.11
16,AGGCTCACGTGAGGGG,0.32
17,TTACTCACGTGTTATT,-0.03
18,TGTCTCACGTGTAGTT,0.15
19,TTGTTCACGTGATCTA,0.46
20,GTTGGCACGTGGTTAT,0
21,AAGGGCACGTGAGGAT,0.08
22,TAGGTCACGTGGGCGG,-0.09
23,GTTGGCACGTGGAACT,-0.02
24,GTTAACACGTGTAGTT,0.18
25,AAGCGCACGTGTGGTG,-0.11

row,Sequence,relative binding free energy [kcal/mol]
1,TTAAGCACGTGATTTA,-0.02
2,GTAGTCACGTGGTACG,0.02
3,GTGGACACGTGGCTGT,-0.07
4,GGTACCACGTGTTGTG,0.01
5,TTGAACACGTGGTCTG,-0.02
6,TCTGACACGTGGGATG,-0.09
7,TTGTTCACGTGAGCGA,0.2
8,GTAAGCACGTGGTGAT,-0.18
9,TACGTCACGTGTAGTT,0.1
10,TTTGCCACGTGTGTTA,-0.1
11,TGTTTCACGTGAGAGA,0.56
12,TGGGACACGTGGTTCG,0.05
13,AGTCGCACGTGCGTAG,-0.05
14,GTATTCACGTGAACGG,0.38
15,TTCTTCACGTGAGTAT,0.29
16,TTTGGCACGTGCTGTA,-0.08
17,TATAACACGTGAAGTT,0.29
18,TTGTGCACGTGGACGA,0.02
19,CAGATCACGTGGGTAG,0.05
20,CATGGCACGTGATAGT,-0.14
21,AATGGCACGTGGCTGG,-0.18
22,GGTGTCACGTGTGCTC,0.21
23,CTTGTCACGTGTCGTT,0.09
24,GAGGACACGTGAGTGA,0.3
25,ATGTTCACGTGAGTGA,0.44

row,Sequence,relative binding free energy [kcal/mol]
1,GATGCCACGTGAGTTG,0.17
2,TCGTTCACGTGCAGGG,0.18
3,TGGGACACGTGGAGCG,-0.04
4,GGATCCACGTGGTGGG,-0.03
5,TGTGTCACGTGCTAAG,-0.09
6,CTGGGCACGTGTGCAG,-0.12
7,GTGTGCACGTGACGGT,0.12
8,AGTTTCACGTGCGTTG,0.29
9,TAACTCACGTGGGTTG,0.15
10,GTTACCACGTGGAGTG,0.08
11,CGCAGCACGTGGGGGA,-0.15
12,ATAAGCACGTGAATAG,0.23
13,AGTTGCACGTGTTGGA,0
14,CAAGCCACGTGGGGGT,-0.19
15,TGATTCACGTGTCTTG,0.21
16,GGGCACACGTGTGGCG,0.01
17,AAGTTCACGTGACAGG,0.24
18,GAAGGCACGTGGTAAG,-0.03
19,GGTGGCACGTGCTTAT,-0.17
20,AAGGTCACGTGTGGAG,0.28
21,GGTGTCACGTGTACTG,0.11
22,GGGACCACGTGGGGTT,-0.09
23,CGGTGCACGTGTGCGC,0.07
24,TGAGGCACGTGGGACG,-0.21
25,TATCGCACGTGTTGTC,-0.01

row,Sequence,relative binding free energy [kcal/mol]
1,TCGTGCACGTGTGTTA,-0.06
2,TTTTTCACGTGGAATT,0.37
3,ACGGACACGTGGGTGA,-0.08
4,TGGAACACGTGAGTAT,0.4
5,GGCGTCACGTGATGTG,0.1
6,TGTTGCACGTGAAGGC,0.26
7,GCATTCACGTGATGTT,0.25
8,AGTATCACGTGGTATA,0.02
9,GTTGCCACGTGAGGTA,0.04
10,GGAGGCACGTGGGGCG,-0.15
11,TAGAGCACGTGTGTGA,-0.04
12,TTAGTCACGTGGGAGC,-0.01
13,TTGTCCACGTGGTGTG,0.06
14,TTTGGCACGTGCATGC,-0.2
15,GGTATCACGTGTCCGG,0.24
16,TGTGGCACGTGAACGT,0.17
17,GTAGGCACGTGGTTAG,-0.03
18,TTGTTCACGTGTCGTT,0.25
19,GGGGGCACGTGGCGGA,-0.15
20,AGTGACACGTGTGCGG,-0.13
21,GGAGCCACGTGGGTGC,-0.2
22,ATGGTCACGTGTCTGA,0.06
23,AGCGTCACGTGTGGAT,0.06
24,CATGACACGTGTTGAT,0.04
25,GCTATCACGTGTTATG,0.2

row,Sequence,relative binding free energy [kcal/mol]
1,AGTATCACGTGTGGCC,0.07
2,ATTATCACGTGGATAT,0.16
3,TGCGACACGTGGGTTA,-0.18
4,AGTTGCACGTGGTGTA,-0.23
5,GTGTTCACGTGGGAGG,0.28
6,TCTAACACGTGTGTTT,0.07
7,TAAACCACGTGGGGTT,-0.17
8,TGGGCCACGTGTCATG,-0.13
9,GGCTACACGTGGTAGT,0.07
10,GGTTGCACGTGCAGCG,0.08
11,GGATTCACGTGGCTGG,0.36
12,GCGGGCACGTGGGATC,-0.12
13,TGGGTCACGTGTTAGT,0.15
14,GTGTGCACGTGTGATC,0.03
15,TATGGCACGTGTCGGT,-0.02
16,ATTCTCACGTGTTAGA,0.21
17,ATAATCACGTGGTGGA,0.11
18,TGAAGCACGTGTTGTA,-0.05
19,TTATTCACGTGGGGAT,0.23
20,GTATCCACGTGTAGTG,-0.01
21,AGGTCCACGTGCTGGG,0
